The list shows a part of the results. Many values rest on one well or one pass, so single values are uncertain.
Assays:
IMR-32 [1] = assay: drug sensitivity score (DSS), single drug with vehicle (DSS (score)); higher = more cytotoxic; extreme values may be limits of the assay; conditions: 72 h; co-treatment: vehicle (DMSO)
SK-N-AS [2] = assay: as above; conditions: 72 h; co-treatment: vehicle (DMSO)
SK-N-AS [3] = assay: drug sensitivity score (DSS) in combination with SL-176 (DSS (score)); higher = more cytotoxic; extreme values may be limits of the assay; conditions: 72 h; co-treatment: SL-176 11.2 uM (IC25 in IMR-32)
IMR-32 [4] = assay: as above; conditions: 72 h; co-treatment: SL-176 11.2 uM (IC25 in IMR-32)
SK-N-AS [5] = assay: drug sensitivity score (DSS) in combination with GSK2830371 (DSS (score)); neuroblastoma lines; SL-176 and GSK2830371 are WIP1 inhibitors; higher = more cytotoxic; extreme values may be limits of the assay; conditions: 72 h; co-treatment: GSK2830371 at IC25 in IMR-32
IMR-32 [6] = assay: as above; conditions: 72 h; co-treatment: GSK2830371 at IC25 in IMR-32
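Throughout, for drug sensitivity score (DSS) in combination with GSK2830371: neuroblastoma cells in 384-well plates, each compound at five concentrations, luminescence read-out, DSS derived from fitted concentration-response curve combining IC50 with minimum and maximum inhibition.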
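Throughout, for drug sensitivity score (DSS) in combination with SL-176: cells in 384-well plates, luminescence read-out, each screening drug at five concentrations, DSS derived from the fitted concentration-response curve combining IC50 with minimum and maximum inhibition.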
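Throughout, for drug sensitivity score (DSS), single drug with vehicle: 384-well screen with five concentrations per compound and a luminescence read-out, DSS computed from the fitted dose-response curve combining IC50 with minimum and maximum inhibition.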

| SMILES | drug sensitivity score (IMR-32 [1]) | drug sensitivity score (SK-N-AS [2]) | drug sensitivity score (SK-N-AS [3]) | drug sensitivity score (IMR-32 [4]) | drug sensitivity score (SK-N-AS [5]) | drug sensitivity score (IMR-32 [6]) |
| --- | --- | --- | --- | --- | --- | --- |
| Cc1ccc(Nc2nccc(N(C)c3ccc4c(C)n(C)nc4c3)n2)cc1S(N)(=O)=O [Pazopanib] | 2.7 | 0 | 0 | 2.4 | 0 | 0.6 |
| CC(C)N(CCCNC(=O)Nc1ccc(C(C)(C)C)cc1)C[C@H]1O[C@@H](n2cc(Br)c3c(N)ncnc32)[C@H](O)[C@@H]1O | 0.3 | 1 | 0.8 | 1 | 0 | 1.6 |
| CNc1nc(Nc2cn(C(C)(C)C#N)nc2C)ncc1C(F)(F)F | 0 | 0 | 0 | 0 | 0 | 0 |
| NC(=O)c1cccc2cn(-c3ccc([C@@H]4CCCNC4)cc3)nc12 [Niraparib] | 15.5 | 0.2 | 1.4 | 18.8 | 0.4 | 22.1 |
| C[C@@H]1COCCN1c1cc(C2([S@](C)(=N)=O)CC2)nc(-c2cc[nH]c3nccc2-3)n1 | 15.9 | 15.3 | 14 | 16.1 | 14.1 | 16.5 |
| CC(=O)c1c(C)c2cnc(Nc3ccc(N4CCNCC4)cn3)nc2n(C2CCCC2)c1=O [Palbociclib] | 9.5 | 10.8 | 9.3 | 4.8 | 10.7 | 8.4 |
| CN(C(=O)c1ccc(F)cc1C(F)(F)F)C1CCN(c2nnc(-c3ccnn3C)c3ccccc23)CC1 [Taladegib] | 0 | 0 | 0 | 0 | 0 | 3.8 |
| CN(C)C(=O)c1cc2cnc(Nc3ccc(N4CCNCC4)cn3)nc2n1C1CCCC1 [Ribociclib] | 4.8 | 6.9 | 5 | 4.7 | 6 | 2.5 |
| CO[C@@]12[C@H](COC(N)=O)C3=C(C(=O)C(C)=C(N)C3=O)N1C[C@@H]1N[C@@H]12 [Mitomycin C] | 12 | 1.2 | 0.2 | 12.3 | 0.7 | 16.6 |
| CCOC(=O)C1=CCCC[C@H]1S(=O)(=O)Nc1ccc(F)cc1Cl [Resatorvid] | 0 | 0 | 0 | 0 | 0 | 0 |
| CC(C)C[C@H](NC(=O)[C@H](CCc1ccccc1)NC(=O)CN1CCOCC1)C(=O)N[C@@H](Cc1ccccc1)C(=O)N[C@@H](CC(C)C)C(=O)[C@@]1(C)CO1 [Carfilzomib] | 33.4 | 27.6 | 29.2 | 30.5 | 29.2 | 32.3 |
| CNC(=O)c1ccc(C)c(-n2c(C)cc(OCc3ccc(F)cc3F)c(Br)c2=O)c1 | 0 | 0 | 0 | 0 | 0 | 4.3 |
| CC[C@@H]1[C@H](F)C(=O)N[C@@H]1COc1nccc2cc(C(N)=O)c(OC)cc12 | 1.9 | 1.8 | 3.2 | 3.4 | 1.7 | 3.4 |
| C[C@@H]1COC(Nc2ccc3ncnc(Nc4ccc(OCc5nccs5)c(Cl)c4)c3c2)=N1 [Varlitinib] | 2.6 | 3.3 | 3.4 | 0 | 3.2 | 3.8 |
| CNc1nc(-c2ccc3c(N)n[nH]c3c2)cc(N2C[C@@H](C(=O)NC3CCCCC3)CC[C@H]2C)n1 | 6.4 | 3.7 | 3.4 | 4 | 5.1 | 9.2 |
| Cc1cc(-c2nc(-c3ccc(OC(F)(F)F)cc3)no2)nn1Cc1ccnc(N2CCN(C3CC3)CC2)c1 | 0 | 20.3 | 17.4 | 13.9 | 22 | 4.8 |
| Cn1cnc2c(F)c(Nc3ccc(Br)cc3Cl)c(C(=O)NOCCO)cc21 [Selumetinib] | 4 | 21.8 | 21.1 | 0.8 | 20.9 | 1.3 |
| O=C(c1cccc(Cl)c1F)N1CCN(Cc2cccc(Nc3nccs3)n2)CC1 | 20.6 | 8 | 6.5 | 19.4 | 7.7 | 22.8 |
| CC1(C)NC(=O)N(c2ccc([N+](=O)[O-])c(C(F)(F)F)c2)C1=O [Nilutamide] | 0.3 | 0 | 0.6 | 0 | 0.2 | 0 |

Reference: the supplement of paper PMC12009370
